In all, about 150,000 compounds went through this assay and about 540 (0.36%) showed an effect of 50% or more. The list shows a part of the results.
These compounds were tested on Plasmodium falciparum (assay: Primary screen in NF54 nanoGlo assay, in single point, at 2uM, 72h; a lower Z score goes with more inhibition). Settings: timepoint 72 hour.
Assay type: functional, Erythrocyte

Structure (SMILES)	% Inhibition	Z score
COCC1CN(C(=O)NCC2CCC(F)(F)CC2)CC(C)O1 (stereo not drawn)	-2%	0.34
Cc1cc(C#N)ccc1N(C(=O)c1sc(-c2ccccc2)nc1C)C1CC1	-20%	2.08
Clc1cnc(OCC2CC=CC2)nc1	-11%	1.55
COc1cccc(NCC(=O)Nc2ncc(Cc3c(Cl)cccc3Cl)s2)c1	24%	-2.77
CN(Cc1ccc(Cl)s1)[C@H]1CCN(CC(F)(F)F)C1=O	-8%	1.15
Cc1ccncc1C(=O)N1C[C@@H]2CC[C@H]1CN(Cc1ccccn1)C2	-7%	0.77
Cc1cccc(N2CCN(c3ccc(NS(=O)(=O)c4cc(C)ccc4C)cc3C(=O)O)C[C@@H]2C)c1	-10%	0.94
CCn1cc(C(=O)OC[C@@]2(C)CCCO2)cn1	6%	-0.82
Cc1cccc(C2CCC(C(=O)NCC3CC3)CN2C(=O)c2ccc(F)cc2)c1 (stereo not drawn)	-13%	1.27
COc1ccccc1N1CCN(C(=O)c2scc3c2OCCO3)CC1	-7%	1.28
CCn1nc(C(=O)N[C@H]2CON(C(=O)OC(C)(C)C)C2)cc1C1CC1	-6%	0.94
CC(C)(C)n1nccc1NC(=O)N[C@@H]1CCC(=O)N[C@H]1C1CCCO1 (stereo partly drawn)	0%	-0.02
CCNc1cc(N2CCN(C(=O)Cc3noc4ccccc34)CC2)nc(C)n1	-10%	1.75
Cc1ccc2c(C)cc(NC[C@@](C)(O)CCCO)nc2c1C	-12%	1.53
COCCN1C(=O)Cc2ccccc2[C@@H]1C(=O)N1CCN(c2cccc(C)c2)CC1	7%	-1.07
Cc1nccnc1-c1ccn(CC(=O)Nc2nn(C)c3ccccc23)n1	-3%	0.43
CCN1C[C@H](CN(C)C(=O)c2ccc(OC)nc2)Oc2ccccc21	1%	-0.17
N#Cc1nccnc1NC[C@@H](O)Cc1ccccc1	0%	0.02
CC(C)c1cnc(NC(=O)N[C@H]2CCCc3occc32)s1	3%	-0.51
CCN1C(=O)CO[C@H](C(=O)N2CC(c3ccc(F)cc3)C2)[C@H]1c1cnn(C)c1	-6%	0.61
COc1ccc([C@@]2(C)NC(=O)N(Cc3cc(C)on3)C2=O)cc1OC	-4%	0.5

Structure (SMILES)	% Inhibition	Z score
O=C1NCCN2CC3(CCN(S(=O)(=O)c4cccc(F)c4)CC3)C[C@@H]12	-10%	2.02
c1ccc2c(c1)CCC(N1CCCNCC1)CC2	6%	-0.89
O=C(CCC(F)(F)F)NCCn1ccnn1	-23%	2.34
Fc1cccc(OCCN2CC(c3nc4ccccc4s3)C2)c1	11%	-1.43
COc1cc(NC(=O)CNCCN2CCOC2=O)ccc1Cl	-5%	0.51
COC(=O)c1cncc(N2CCCN(C(=O)OCC(C)C)CC2)n1	-32%	3.79
[O-][S+]1CCN(c2nc3cc(C(F)(F)F)ccc3s2)CC1	0%	-0.05
CCN1CCN(C(=O)c2cc(Br)cn2C)C[C@@]12CCOC2	-7%	1.13
O=c1[nH]c(COc2ccc(F)cc2)nc2cc(F)c(F)cc12	30%	-3.36
COc1ccc(Cl)cc1NC(=O)Cn1c(C)ncc(C(=O)NC2CC2)c1=O	0%	0.04
C[C@@](CO)(NC(=O)c1oc2ccccc2c1Cl)C1CC1	-6%	1.2
CCc1n[nH]cc1C(=O)N[C@H]1C[C@H](c2cc(=O)[nH]c(C3CC3)n2)C1	-20%	3.14
CC(C)C(=O)N1CCc2ccc(C(=O)NC3CC3)cc21	-11%	1.26
CN(Cc1ccccc1)Cc1cc(=O)[nH]c(N2CCN(C(=O)c3ccco3)CC2)n1	-9%	1.42
C#Cc1cccc(NC(=O)c2ccc(-n3ccnc3)nn2)c1	-4%	0.67
Cc1ccsc1-c1noc([C@@H]2COCCN2C)n1	87%	-14.98
O=C(Nc1ccccc1)c1nnc(C(=O)N2CCC[C@H](C(=O)NCc3ccccn3)C2)s1	-23%	2.03
COC(=O)c1cc(C2CC2)nc2c1c(=O)n(Cc1ccccc1C)c(=O)n2-c1ccccc1OC	5%	-0.77
O=C(Nc1ccc(Oc2ccc(CO)cc2)cc1)c1ccncc1F	-10%	1.24
COc1cc2c(cc1CN1CCC3(CC1)Cc1cn(nn1)CCCNC(=O)[C@H](Cc1ccccc1)NC3=O)OCO2	-8%	1.52
CC(C)Cn1cncc1CN1CCS(=O)(=O)CC1	-6%	1.02

Structure (SMILES)	% Inhibition	Z score
Cn1ncnc1CCNC(=O)C[C@@H]1C[C@@H]2C=C[C@H]1C2	-11%	1.41
Cn1ccc(C(=O)N2CCC[C@H](CCc3c(F)cccc3F)C2)n1	-8%	1.17
COc1ccccc1Cc1nc(Cc2nonc2C)n(CCO)n1	-9%	1.71
COc1ccccc1NS(=O)(=O)c1cc(-c2c(C)nn3c2NC(=O)CCC3=O)ccc1OC	0%	0.02
CNC(=O)Cn1cc(NC[C@@]2(C)C[C@@H]2c2ccccc2)cn1	-5%	0.8
Cn1ncc(Cl)c1C(=O)N(C(=O)c1c(Cl)cnn1C)c1ccccc1C(F)(F)F	-10%	1.39
Cc1ccc(CCNC(=O)c2cncc(Br)c2)cn1	-11%	2.14
CCc1nc2cc(C(=O)N(C)Cc3ccn[nH]3)cc(NC(=O)c3ccccc3OC)c2n1C	-2%	0.22
Cc1nccc(CNC(=O)[C@@H](CC2CCCCC2)C(C)C)n1	-4%	0.67
C[C@@H](CN1CCOCC1)C(=O)NCc1ccc(-c2ncon2)cc1	-9%	1.56
CC(C)(C)c1noc(CNC(=O)N2CCC[C@H]2C(N)=O)n1	-9%	1.44
Cc1cccc(C)c1C(=O)NC1CC2(CCNC2)Oc2ccccc21 (stereo not drawn)	4%	-0.38
CC(=O)Nc1ccc(Oc2cccc3[nH]ccc23)nc1	35%	-3.94
O=C(Nc1nc(-c2ccc(Oc3ccccc3)cc2)cs1)c1ccc(Cl)s1	-13%	2.26
O=C(NCC1CCN(S(=O)(=O)c2ccc(Cl)s2)CC1)c1ccnnc1	-3%	0.43
O=C(NC[C@H]1COCCO1)Nc1cccc(F)c1	-12%	1.67
COCCNC(=O)Cn1c(=O)n(CCc2cccs2)c(=O)c2sccc21	-2%	0.23
O=C1CC(Cc2ccc(C(=O)NC3CCN(c4ccccc4Cl)C3=O)cc2)C(=O)N1 (stereo not drawn)	-9%	1.16
OCC1CCN(CCCOCCc2ccccc2)CC1	12%	-1.5
CCCCc1nc(CN2CCc3nocc3C2)c[nH]1	-6%	1.06
O=C1CCCN1c1ccc(NCc2cnn(Cc3ccc(F)cc3)c2)nc1	-10%	1.39

Structure (SMILES)	% Inhibition	Z score
Cc1ccc(Oc2ccccc2CNC(=O)[C@@H]2CCC(=O)N2)cc1	31%	-4.53
Cc1cccc(S(=O)(=O)Nc2ccc(-c3ccc4nncn4n3)cc2)c1	-10%	1.35
C[C@H](NC(=O)Cc1ccccc1O)c1csc(C2CC2)n1	5%	-0.69
Cc1cc(NCc2cnn(C)c2)nc2cc3c(cc12)CCC3	-5%	0.79
O=C(Nc1cc(F)c(F)c(F)c1)c1cn(C[C@H](O)c2cccs2)nn1	4%	-0.76
CCc1oc2c(NC(=O)[C@@H]3CC[C@H](N)C3)cc(Cl)cc2c1C	-12%	2.19
COc1ccc2cc(C(=O)NC(c3ccccn3)[C@H]3C[C@@H](O)C3)n(C)c2c1 (stereo partly drawn)	-7%	1.02
O=C(Nc1nc(-c2ccc3c(c2)OCCO3)cs1)c1cccc(S(=O)(=O)N2CCCCC2)c1	6%	-0.98
CC(=O)N(Cc1ccc(NC(=O)NCC2CCOCC2)cc1)C(C)C	3%	-0.48
O=C(NCCc1nc2ccccc2[nH]1)[C@@H]1CNCCO1	-12%	1.38
O=C(NC1CC1)NC1C2CCC(C2)C1CO (stereo not drawn)	1%	-0.09
Cc1cc(Br)cnc1NC[C@H](O)c1ccco1	-5%	0.68
C[C@H]1CCc2n[nH]c(C(=O)N(C)Cc3nc4ccccc4c(=O)[nH]3)c2C1	-4%	0.71
CCCC(=O)NC[C@@H](CO)Cc1ccc(OC)c(Br)c1	-3%	0.58
O=C(C1CCCCC1)N1CC(c2nc(-c3ccc4c(c3)CCC4)no2)C1	-7%	1.24
O=C(O)c1cc(-n2ccnc2)nc2ccccc12	-5%	0.61
CC1=NN(c2ccc(Cl)cc2)C(=O)C12Cc1cc(Br)ccc1N1CCN(c3ncccn3)CC12 (stereo not drawn)	10%	-1.21
C[C@H](NS(C)(=O)=O)c1nc(CC(N)=O)nn1-c1cccc2c1CCC2	-16%	2.04
COC(=O)c1ccc(Cl)c(NC(=O)c2coc(C3CCC3)n2)c1C	2%	-0.28
CC1CCCC(NC(=O)Cn2cnnn2)C1 (stereo not drawn)	-1%	0.13
Cc1nn(-c2ccccc2)c2sc(-c3noc(C4CCCCC4)n3)cc12	20%	-2.33
